Assay results reported in the supplement of paper PMC11880418.
Where a name gives a salt, the structure may show the parent alone. This is one part of the list. The data scatter; read single values as rough.

The molecules below were run on PANC1 (assay: ALDHbr (CSC) cell proportion score relative to DMSO vehicle (ratio to DMSO); breast (SUM159) / gastric (MKN45) / pancreatic (PANC1) / colon cancer lines; ALDHbr cells have high ALDH activity and are rich in cancer stem cells (CSC); higher = more CSC (ALDHbr) cells remaining). Details: 10 µM; 72 h.
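Note: High-content imaging of ALDEFLUOR-stained cells with Hoechst-labelled nuclei in 384-well plates, triplicate wells, scored as Z-score against 0.1% DMSO vehicle, negative meaning fewer ALDHbr cells.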

Compound | ALDHbr
CC(C)c1cccc(C(C)C)c1O [Propofol] | 0.907
C[N+](C)(C)CCCCCCCCCC[N+](C)(C)C [Decamethonium bromide] | 1.12
O=c1[nH]c2ccccc2n1CCCN1CCC(n2c(=O)[nH]c3cc(Cl)ccc32)CC1 [Domperidone] | 0.591
OC(c1ccccc1)(c1ccccc1)C1CCNCC1 [Azacyclonol] | 0.882
NC(=O)CN1CCCC1=O [Piracetam] | 0.929
C[N+]1(C)CCOC(O)(c2ccc(-c3ccc(C4(O)C[N+](C)(C)CCO4)cc3)cc2)C1 (centres undefined) [Hemicholinium bromide] | 1.05
CC(=O)NC1CCSC1=O (racemic) [N-Acetyl-DL-homocysteine Thiolactone] | 0.852
CC(=O)OCC(=O)[C@H]1CC[C@H]2[C@@H]3CC[C@H]4C[C@H](O)CC[C@]4(C)[C@H]3C(=O)C[C@]12C [Alfadolone acetate] | 0.837
CC(C)N(CCC(C(N)=O)(c1ccccc1)c1ccccn1)C(C)C (centres undefined) [Disopyramide] | 0.782
CNC(=O)Oc1ccc2c(c1)[C@]1(C)CCN(C)[C@@H]1N2C [Eserine hemisulfate salt] | 0.874
Oc1ccc2c3c1O[C@H]1[C@@H](O)CC[C@@]4(O)[C@@H](C2)N(CC2CCC2)CC[C@]314 [Nalbuphine hydrochloride] | 0.942
CC[C@@H](CO)NC(=O)[C@@H]1C=C2c3cccc4[nH]cc(c34)C[C@H]2N(C)C1 [Methylergometrine maleate] | 0.911
CO[C@]12C[C@@H](COC(=O)c3cncc(Br)c3)CN(C)[C@@H]1Cc1cn(C)c3cccc2c13 [Nicergoline] | 0.812
Cc1cccc(C)c1NC1=NCCCS1 [Xylazine] | 0.896
C[N+]1([O-])[C@@H]2C[C@@H](OC(=O)[C@H](CO)c3ccccc3)C[C@H]1[C@@H]1O[C@@H]12 (some centres undefined) [Scopolamin-N-oxide hydrobromide] | 1.26
C[C@]12CCC(=O)C=C1CC[C@@H]1[C@@H]2C(=O)C[C@]2(C)C(=O)CC[C@@H]12 [Adrenosterone] | 0.91
CN1[C@@H]2CC[C@H]1C[C@@H](OC(=O)C(CO)c1ccccc1)C2 (some centres undefined) [Atropine sulfate monohydrate] | 0.954

Compound | ALDHbr
C#C[C@]1(O)CC[C@H]2[C@@H]3CCC4=CC(=O)CC[C@]4(C)[C@H]3CC[C@@]21C [Ethisterone] | 0.799
O=C1CC[C@@]2(O)[C@H]3Cc4ccc(O)c5c4[C@@]2(CCN3CC2CC2)[C@H]1O5 [Naltrexone hydrochloride dihydrate] | 0.941
CCC(COC(=O)c1cc(OC)c(OC)c(OC)c1)(c1ccccc1)N(C)C (centres undefined) [Trimebutine] | 0.985
CCC1(CC)C(=O)C=CNC1=O [Pyrithyldione] | 1.01
C=C1CC[C@@]2(O)[C@H]3Cc4ccc(O)c5c4[C@@]2(CCN3CC2CC2)[C@H]1O5 [Nalmefene hydrochloride] | 0.958
CN1[C@@H]2C[C@@H](OC(=O)[C@H](CO)c3ccccc3)C[C@H]1[C@@H]1O[C@@H]12 [Scopolamine hydrochloride] | 0.924
Clc1ccc(C(OCCN2CCCCC2)c2ccccc2)cc1 (centres undefined) [Cloperastine hydrochloride] | 1.16
C=CCN1CC[C@]23c4c5ccc(O)c4O[C@H]2C(=O)CC[C@@]3(O)[C@H]1C5 [Naloxone hydrochloride] | 0.975
COC[C@@H](NC(C)=O)C(=O)NCc1ccccc1 [Lacosamide] | 0.916
CC(NC(C)(C)C)C(=O)c1cccc(Cl)c1 (centres undefined) [Bupropion hydrochloride] | 0.893
C[C@]12Cc3c[nH]nc3C[C@@H]1CC[C@@H]1[C@@H]2CC[C@@]2(C)[C@H]1CC[C@]2(C)O [Stanozolol] | 0.884
C[C@]12CC[C@@H](O)C[C@H]1CC[C@@H]1[C@@H]2CC[C@]2(C)C(=O)CC[C@@H]12 [3-alpha-Hydroxy-5-beta-androstan-17-one] | 0.751
C[N+]12CCC(CC1)C(OC(=O)C(O)(c1ccccc1)c1ccccc1)C2 (centres undefined) [Clidinium bromide] | 1.07
CCCN1C[C@H](CSC)C[C@@H]2c3cccc4[nH]cc(c34)C[C@H]21 [Pergolide mesylate] | 0.701
CN1C(=O)CCS(=O)(=O)C1c1ccc(Cl)cc1 (centres undefined) [Chlormezanone] | 0.945
O=[N+]([O-])O[C@@H]1CO[C@H]2[C@@H]1OC[C@@H]2O [Isosorbide mononitrate] | 0.988
CC[N+]1(C)CCCC(OC(=O)C(O)(c2ccccc2)c2ccccc2)C1 (centres undefined) [Pipenzolate bromide] | 0.937
